Test results taken from patent publication US20230407304A1, “USE OF MICRORNA INHIBITION TO PREVENT AND TREAT OSTEOARTHRITIS AND OTHER INFLAMMATORY DISEASES” (VIRGINIA COMMONWEALTH UNIVERSITY, priority 2020, published 2023).

Tested on: resting zone and growth zone chondrocytes
Test: microRNA transfection of costochondral resting zone and growth zone chondrocytes
Details: transfected costochondral resting zone and growth zone chondrocytes; preliminary testing

miR-122: mirVana miRNA mimic rno-miR-122-5p; UGGAGUGUGACAAUGGUGUUUG (UGGAGUGUGACAAUGGUGUUUG; listed as RNA, chemistry not given here)
proliferation: increase in proliferation in both the resting zone and growth zone chondrocytes
